The least precise scores are not listed. The source holds two more conditions with little spread; they are left out. Read del as a deletion of the residues named and ins as an insertion between two positions. For part of these data: The concentration of ogerin is not given here.
B1: GPR68, Q15743 (parent)
chain: MGNITADNSSMSCTIDHTIHQTLAPVVYVTVLVVGFPANCLSLYFGYLQIKARNELGVYLCNLTVADLFYICSLPFWLQYVLQHDNWSHGDLSCQVCGILLYENIYISVGFLCCISVDRYLAVAHPFRFHQFRTLKAAVGVSVVIWAKELLTSIYFLMHEEVIEDENQHRVCFEHYPIQAWQRAINYYRFLVGFLFPICLLLASYQGILRAVRRSHGTQKSRKDQIQRLVLSTVVIFLACFLPYHVLLLVRSVWEASCDFAKGVFNAYHFSLLLTSFNCVADPVLYCFVSETTHRDLARLRGACLAFLTCSRTGRAREAYPLGAPEASGKSGAQGEEPELLTKLHPAFQTPNSPGSGGFPTGRLA

What was measured:
[1] = variants of: B1; assay: cAMP reporter score (Enrich2 score, wild type = 0); higher = more signal; HEK293T, FACS bins
[2] = variants of: B1; assay: surface expression score (Enrich2 score, wild type = 0); higher = more signal; HEK293T, FACS bins

Variant | cAMP reporter score ([1]; pH 5.5) | cAMP reporter score ([1]; pH 6) | cAMP reporter score ([1]; pH 6, modulator: ogerin) | cAMP reporter score ([1]; pH 6.5, modulator: ogerin) | surface expression score [2]
Y102_E103del | -1.21 | -1.38 | -1.53 | -1.4 | -2.03
Y102del | -1.4 | -1.27 | -1.04 | -0.685 | –
N104del | -0.418 | -0.972 | – | -0.121 | -3.31
I105_Y106insGSG | -0.361 | -0.531 | -0.67 | -0.431 | -0.289
E103_N104del | -1.1 | -1.74 | -1.97 | -0.327 | -2.62
I105_I107del | -1.75 | -0.527 | -1.71 | -0.907 | -3.68
I105_Y106insG | -0.599 | -0.631 | -0.466 | -0.767 | -1.68
Q95del | -0.994 | – | -0.581 | -0.535 | -0.765
S108C | 0.41 | 0.916 | 0.035 | -0.204 | –
S108Q | -0.486 | – | -1.52 | – | –
S108T | 1.81 | 2.21 | 1.67 | 0.578 | –
S108K | -0.113 | 1.48 | -0.661 | -0.33 | 0.504
S108F | -1.05 | -0.614 | -1.58 | -1.1 | -1.18
S108W | -1.82 | -1.14 | -0.902 | -1.45 | -2.26
S108Y | -1.27 | -0.319 | -1.08 | -0.709 | -1.42
S108H | 0.774 | -0.696 | -0.44 | 0.06 | 2.04
S108I | -0.482 | – | – | -0.427 | –
S108L | -2.11 | -0.711 | -1.71 | -1.28 | -2.66
S108R | -0.412 | -1.81 | – | -0.395 | –
S108V | 0.308 | 3.88 | 0.226 | 1.15 | -1.65
S108N | -0.297 | -0.058 | -1.14 | 0.158 | -0.971
S108D | -1.85 | – | – | 0.051 | –
S108G | -0.266 | -0.917 | -0.561 | -1.45 | -0.867

Variant | cAMP reporter score ([1]; pH 5.5) | cAMP reporter score ([1]; pH 6) | cAMP reporter score ([1]; pH 6, modulator: ogerin) | cAMP reporter score ([1]; pH 6.5, modulator: ogerin) | surface expression score [2]
S108E | -1.14 | – | -1.78 | -2.1 | -1.76
S108A | 0 | 2.37 | 0.431 | 2.27 | -1.77
L100Y | -2.27 | -0.633 | -1.67 | -2.27 | -1.01
L100R | -0.837 | -0.772 | -1.31 | -1.28 | -2.04
L100I | -0.138 | -0.521 | -0.606 | -0.319 | 0.416
L100K | -0.785 | -0.947 | -2.13 | – | -1.7
L100E | -1.23 | -1.26 | – | – | –
L100S | -0.771 | -0.958 | -1.02 | -1.51 | -1.16
L100A | 0.565 | 0.326 | – | -1.32 | -0.707
L100N | -1.89 | -1.21 | -1.35 | -0.758 | -3.13
L100H | -1.75 | -1.28 | -2.6 | -0.574 | -2.14
L100Q | -1.66 | -1.56 | -1.17 | -0.969 | -2.51
L100D | -0.745 | – | – | -1.52 | –
L100G | -0.854 | -2.33 | -1.68 | -1.04 | -2.13
L100W | -1.33 | – | -2.29 | -1.85 | -0.601
L100P | -1.57 | -0.133 | -0.829 | -1.43 | -1.51
L100C | -0.399 | -0.032 | -2.07 | -0.439 | –
L100M | -0.586 | -0.981 | -1.46 | -0.999 | -0.325
L100T | 0.945 | -0.265 | -0.831 | – | –
C97_G98del | -1.77 | -1.64 | -1.64 | -1.19 | -2.35
I105_Y106del | -1.64 | -2.66 | – | -0.889 | –
G98del | -1.22 | – | -0.715 | -0.625 | -1.46
C97del | 0.135 | -0.713 | -0.722 | -0.441 | -2.63

Variant | cAMP reporter score ([1]; pH 5.5) | cAMP reporter score ([1]; pH 6) | cAMP reporter score ([1]; pH 6, modulator: ogerin) | cAMP reporter score ([1]; pH 6.5, modulator: ogerin) | surface expression score [2]
G98_L100del | -1.39 | -0.795 | -0.63 | -1.23 | -2.63
N104_Y106del | -1.86 | -1.82 | -1.63 | -0.936 | -1.96
I107_S108insGS | -3.35 | -0.007 | -1.71 | – | -0.411
Y106_I107del | 0.163 | – | -1.07 | -1.52 | -3.04
I107_S108insG | -1.94 | -0.831 | -2.22 | -0.509 | -2.33
I105L | -0.869 | -0.202 | -0.907 | -0.324 | -0.782
I105D | -1.21 | -1.21 | -1.52 | -1.34 | -2.51
I105M | -0.131 | 0.405 | -0.462 | 0.751 | -0.255
I105A | -0.397 | 1.93 | -0.256 | -0.624 | 0.583
I105T | -0.505 | -0.275 | -0.96 | -0.677 | -1.03
I105C | 0.596 | -0.588 | -0.098 | -0.823 | -1.4
I105S | 0.043 | – | -1.77 | – | –
I105W | -0.417 | -0.506 | -0.473 | -0.941 | -2.07
I105V | -0.472 | -0.492 | -0.919 | -0.969 | -0.635
I105K | -0.735 | -0.059 | -0.722 | -0.625 | -0.547
N104D | -0.355 | 0.23 | -0.236 | -0.611 | -0.745
N104G | -0.485 | – | – | – | –
N104L | -0.821 | – | -0.095 | – | -3.34
N104Q | -0.333 | -0.223 | -0.916 | -0.823 | -0.032
N104Y | -0.696 | 0.341 | -0.775 | -0.512 | -0.684
N104H | 0.192 | 1.34 | – | -0.082 | 2.18
